# Source: the supplement of paper PMC12632987
# In all, about 1,800 sequences were measured (“median log2 fold change of GCK-ALFA target abundance (FLAG IP / Myc IP barcode read proportion)”: median about 0.14, lowest 2% from about -0.84 on). The list shows a part of the results.
# T1: TRAF2, Q12933
# T1 chain: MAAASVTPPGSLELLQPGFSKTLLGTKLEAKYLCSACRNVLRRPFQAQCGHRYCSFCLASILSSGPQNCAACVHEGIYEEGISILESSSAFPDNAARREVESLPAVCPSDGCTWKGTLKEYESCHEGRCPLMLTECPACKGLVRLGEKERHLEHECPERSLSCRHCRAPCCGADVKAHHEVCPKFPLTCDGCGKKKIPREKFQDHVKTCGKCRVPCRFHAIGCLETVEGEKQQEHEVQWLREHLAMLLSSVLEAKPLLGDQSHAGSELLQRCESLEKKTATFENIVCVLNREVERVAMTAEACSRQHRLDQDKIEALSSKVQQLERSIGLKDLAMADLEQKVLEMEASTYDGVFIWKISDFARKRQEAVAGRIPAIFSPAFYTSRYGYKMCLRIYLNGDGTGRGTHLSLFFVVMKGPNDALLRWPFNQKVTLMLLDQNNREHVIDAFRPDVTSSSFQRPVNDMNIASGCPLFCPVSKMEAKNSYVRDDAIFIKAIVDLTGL
# B1: traf2_out_13_95_1055 (protein)
# chain: SAETAAKINEIADEALERALALLRAAQEEVADDPAASAVLAEALRLAETRGISEAIHLLREAQAADPAHAERFAALIEELEAIRREAGRRVAEVLKEEKE
# B2: traf2_out_20_3_2072 (protein)
# chain: EELLKEAEKELEKAIKLLEEAAKKADEETAKELKELIERLKKSRELSIDDRLVVVSEVRREVLRLAEKARKEGREELAKLLEKAAEALNKAAQLLYDILQ
# B3: traf2_out_6_156_2396 (protein)
# chain: MLEEILKEAKEKMEELIKEMSKAPEEKKISWINRIAGVVYRALQRAREAGASLEELEAFAKEILEHAKELAEKYGLDEDTKNLLLSSLNAVFDVALEEAK
# B4: traf2_out_3_77_2275 (protein)
# chain: SEEEEKAREELDKATTEAIASLAVLAINRPEKAEKYREMASRLHRAVAIAKEAGAEKEFLPLVKELLEAAKALNEGNEEAEEKIEKLLKEIEAKAKKLEA
# B5: traf2_out_11_155_695 (protein)
# chain: SEQQKLNNELVDKMMEIEDEAKAELAAIAAAAAAEHPEHAAAIAALVAESARFSATTFAGRAAALFRELGLEAYAARVEALREEAQKKKNEVYKEIEAKR
# B6: traf2_out_11_155_682 (protein)
# chain: EKERELNNQLVDETTAIADKLKAEVRAIAARAAAAHPAHAAEIEAVLAASAPFSYRTFAGEAARTFERLGDADAAAEVRALLEKAQKEMNKVVKEIEAKK
# B7: traf2_out_16_104_1405 (protein)
# chain: EEEKKKRFDKIIEELNKIADELGRLANRLYKLMETASPEKKEELSDALVEASEARRKALQAAEEAKKAKETGGDLKEAEKKLKELKEEAKRVKKRAEELF
# B8: traf2_out_6_3_2510 (protein)
# chain: EEEEERKRNEEALEEAAEMSLETIKIAAKSGLKELKKAVEDPNATESDFLAYYSAINTLIEIAEKHAELNPEKKEEAEKFIKEIKKEKEKLKAEWKEKTA
# B9: traf2_out_17_162_1492 (protein)
# chain: SALEAELKALQAELEELRKRLEELKERLKNLENLSKEELTDLLVEASEARRRALELAERLRELREKTGDPELDTLIEEAEALAEELQRIANTIYNEILKK
# B10: traf2_out_11_169_777 (protein)
# chain: EEAEKNRKINDKALELNDKAKEELKKFALELAKEEGLDVEEVKKIFEENKNKSLSAVAAALIEYFESKGKEEAAKKVLEKYEELKEKINKESSAFIKSLQ
# B11: traf2_out_18_167_1845 (protein)
# chain: EEEVRERRRELSDRLVDLSAVRRAALRALQALETDPAAVPAELAALRAEAAKVPELQPLVDAAEAALAAGDRAALRAELERLIAAAGRLMQEAYDELEAL
# B12: traf2_out_13_95_1094 (protein)
# chain: SKEVAEKIMEIADKMLDESLEVLKKLLEEMKKKGKLEEEIKEVLELAENQSINEAIHKLKELAKKYPEVKELLEKAIEELEEIRRKAGKEVAKILKEEKE
# B13: traf2_out_8_174_2563 (protein)
# chain: MEREKLKKAANLGLKYQEKIDEIKEKTEELRKKSLDEALKYTEEKGEELLKEIKEDEEKFKKTEDEELYKLLSRVLNSARTRVENLVEGTKILAEAEKKA
# B14: traf2_out_1_27_990 (protein)
# chain: SDKEITEKIKEASKKMANSSLEEKLEIAKELIREMAKVSKGDAATAAVILASVTKTEEEFEALLKAIKETFKELGWSEEEIEEIERKMRTMWELLKKAYA
# B15: traf2_out_20_38_2004 (protein)
# chain: SEEEEEEKRLEKIIQAANDALDAWEARFAALKAEGKSVEEIAEIAKEEIRRLLTAAGLEEEAEELVAQVDLVLDSPDAERLIARILARAAALVTQKKLQE
# B16: traf2_out_12_187_960 (protein)
# chain: SVADELREAAEAAYRAARAALEKLAPTDPAAQELLARLERAAELMRRHPELASDLLVAASAVLRWVRLVEEGAPAEERAAALAAARAALDEALERGARLE
# B17: traf2_out_20_3_2086 (protein)
# chain: MELEEELEKEIERAIKLLKEAAKLSDEETAKVLEELIKKIKESRELPLEDRLVVLSEVRREVLLLAQKAKEEGKEELAKLLEEAADELNEAMNLIMKLIE
# B18: traf2_out_14_149_1232 (protein)
# chain: SAEQEKLRAAAEINAEIAAALDEVLALLDAGKVEEAKALLRATIAELRARGAAHGITVSGLFVLEEILALLDTDVEAAKAAAAAARARARNAAEAFREMA
# B19: traf2_out_17_162_1519 (protein)
# chain: SPLEEELAALEAELAALEAQLAALEAKLADLDKMSKEELTDLLVEASEARRRARELAERLRRLRPLIGEERAGALIARAEAIADRLNAIANKIYKELEKK
# B20: traf2_out_20_38_2048 (protein)
# chain: SAEEEERRENELIRQAAREADERADERLAARRAAGVSDEEILRETTEEAVRRLEAIGAEDNAERIRLRAAHYREEGTYLKGAEEIIISAEVAIAVQKQLK
# B21: traf2_out_13_95_1037 (protein)
# chain: SKELAKKIMEIADKMLDEVLALLDAAAAAHADDPAAVAVLDEARRAAETRGINEAIHILRQAAAADPEHKADFDALIAEMEAIKREAGREVAKLIKEEKE
# B22: traf2_out_17_162_1632 (protein)
# chain: SPLEEKLREYEERLEELEEELKELKKKAEEIEKLSKEELTDLLVEASEKRREALELAEELRELKEKYNDERLDELIERAEEIAEEFQRIANKFYKELEKK
# B23: traf2_out_3_89_2280 (protein)
# chain: SMEEEEKIKEARENIETWIRGLRKSTRRVAEEMRKEGASLETIKGLIDSSATALLEAFKISLKDKGFDEETIEELVEEAKEELEKIREELKEEAEKAYEE
# B24: traf2_out_11_169_844 (protein)
# chain: EEREKNRAINDFSLELNDKAKEELRKHAKELAKEAGLDVEEIDKIFEENKGKSFSYIAGKLIEYFTSKGKEEVAKKILEKYEELKEEVNKKATAFIKSLE
# B25: traf2_out_17_178_1656 (protein)
# chain: DKEEARKKISEATDKLIDLTEETAARLLAILEADGIASPEELAALRRAQRLGSATTVRALMERAVPRSPRSAEVAALLDDFKKKSGELAKEIAEALKKYE
# B26: traf2_out_13_95_1091 (protein)
# chain: SKEVAEKINKIADEMLDKSLALLEKLLKIAEEKGKAVEEIKEAIDLAEYRSINEAIHKLEELAKKYPEFKEELEATIKEIRAIKREAGRKVAEILKEEKE
# B27: traf2_out_12_187_950 (protein)
# chain: SVEEELRRAAEEAYRQAVRRLKRHAGEDEEVRRFLEELERLRELWEKHPEIAADLLVAASAIIRYMDLLEEGAPAEEIAAARERAERLLREALERAEALE
# B28: traf2_out_1_158_911 (protein)
# chain: STEVGLLAASVTSVLDVWAEEAKERGLEEAAALFEELREEVLKLYEENKDSSLEEFAEKVLELIEKYRERAKALDPESRALVDRAFRQIESAVEQVLKLA
# B29: traf2_out_5_86_2371 (protein)
# chain: EEARRDAISDELTALLLAEYGKIISKLNELGASADVTYLALKYFNRAVSGERTEEARAKLVEKMKAEGFSDEEIKEILELVEREAAKVREARAAAAAAAA
# Target: T1, TRAF2, Q12933
# Test: median log2 fold change of GCK-ALFA target abundance (FLAG IP / Myc IP barcode read proportion) (log2 ratio); each designed protein is fused to an ALFA-tag nanobody in HEK293 cells to bring the named protein to FLAG-tagged glucokinase (GCK); Myc marks an untargeted standard; higher = target protein stabilised (more abundant)
# Settings: target protein: 3xFLAG-MCP-GCK-ALFA reporter; HEK293 landing pad (RPLP)
# Method in brief: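 Sequencing of reverse-transcribed, amplified circular RNA barcodes from anti-FLAG and anti-Myc immunoprecipitates provided the readout for an ALFA-nanobody-fused binder library recombined into HEK293 landing-pad cells. Those cells were induced with 2 μg mL^−1 doxycycline, transfected with a plasmid expressing a FLAG-tagged target and a Myc-tagged standard, and lysed after 48 h. Target abundance is the per-binder median log2 ratio of FLAG to Myc barcode read proportions. Only barcodes at a proportion of ≥10^−7 in both replicates and binders with ≥3 barcodes per replicate were kept, with a 10^−6 pseudocount added before the two replicates were pooled.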
row,Binder,median log2 fold change
1,B1,0.257
2,B2,0.267
3,B3,0.066
4,B4,0.323
5,B5,0.427
6,B6,0.368
7,B7,-0.0439
8,B8,0.106
9,B9,0.0611
10,B10,0.293
11,B11,0.179
12,B12,-0.0821
13,B13,0.207
14,B14,-0.169
15,B15,-1.04
16,B16,-0.00248
17,B17,-0.0607
18,B18,0.339
19,B19,-0.109
20,B20,0.215
21,B21,-0.678
22,B22,0.164
23,B23,0.0329
24,B24,0.219
25,B25,-0.194
26,B26,-0.417
27,B27,0.0974
28,B28,0.126
29,B29,-0.451
